This is an account of results in paper PMC7819943, “Rice protein-binding microarrays: a tool to detect cis-acting elements near promoter regions in rice”.

This is one part of the list.

For this assay, the target named is T1, OsWOX13 (Oryza sativa, UniProt Q5QMM3 1-267).
T1 sequence: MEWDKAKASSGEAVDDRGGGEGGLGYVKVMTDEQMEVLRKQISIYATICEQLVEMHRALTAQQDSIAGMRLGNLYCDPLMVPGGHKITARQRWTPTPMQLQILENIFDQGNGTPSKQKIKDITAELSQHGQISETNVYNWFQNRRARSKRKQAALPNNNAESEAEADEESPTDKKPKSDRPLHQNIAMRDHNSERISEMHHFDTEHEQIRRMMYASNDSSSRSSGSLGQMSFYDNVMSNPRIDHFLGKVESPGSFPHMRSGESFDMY
Kind of assay: protein-binding microarray (RPBM); PBS, 2% BSA, 51.3 ng/ul salmon testes DNA, 50 uM zinc acetate, 200 nM TF, 25 C, 1 h; high values mean tight binding. To be noted: protein: recombinant; tags: N-terminal polyhistidine and DsRed monomer fusion (pET32a); label: CyDye5-dUTP incorporated in the synthesized complementary strand; 3' TTTTT single-stranded linker to array surface; dsDNA, one strand shown. The gist of the method: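 The binding signal is fluorescence intensity per array feature (arbitrary units). Readings came from an Axon 4000B scanner after a washed, 2% BSA-blocked, double-stranded custom Agilent array had been incubated for 1 h at 25 °C with 200 nM protein and 50 µM zinc acetate. The protein was a Ni–NTA-purified transcription factor fused N-terminally to polyhistidine and DsRed, expressed in E. coli BL21-CodonPlus.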
Take “ATCTCTAGATTAAGATTAATTTCAACTCTGGTCTGCAGTACGGAGTCACCTAGTGCAG”: the binding signal is 15200 fluorescence intensity (a.u.).

Regarding “AAAATTGAAGATGTTTCCGCGGTTCATCATCCGTGTTTGACGGAGTCACCTAGTGCAG”, the binding signal is 6270 fluorescence intensity (a.u.).

With “TAGTGGGGAGGCGGTGGTGCTGCGGGGAGGGAGGGAGCACCGGAGTCACCTAGTGCAG”, the binding signal is 4360 fluorescence intensity (a.u.).

As for “TGTCCATCAATTTCGTAACTACTATTAACTCACCAGGGACCGGAGTCACCTAGTGCAG”, the binding signal was 13900 fluorescence intensity (a.u.).

Take “CAGCCCATCTGATTAGATAGAGTGCACTCAGTCCCTTCCCCGGAGTCACCTAGTGCAG”: the binding signal is 12300 fluorescence intensity (a.u.).

“CTCACATAATGTGTGTGTAATTTGAGGTGCCAATGAAACGCGGAGTCACCTAGTGCAG”: the binding signal was 4620 fluorescence intensity (a.u.).

As to “AGCTGAATTTAATTAACAATCACCGATGATGGCCGGTCGACGGAGTCACCTAGTGCAG”, the binding signal was 32000 fluorescence intensity (a.u.).

For “GAGCATAATTACGCCATGATTTGATAATGTGATGCTACAGCGGAGTCACCTAGTGCAG”, the binding signal was 40700 fluorescence intensity (a.u.).

Consider “ACCATCATTCCAAATTGATCATGATATATATTTATGCACCCGGAGTCACCTAGTGCAG”, for which the binding signal was 8060 fluorescence intensity (a.u.).

Regarding “TTAGATTGGTTTTGCTCTTATGTGATAGACTAGTCAATATCGGAGTCACCTAGTGCAG”, the binding signal was 35500 fluorescence intensity (a.u.).

For “AACGAAATTAAGGAGATTACTGGAACCCAACTAGTAGTAACGGAGTCACCTAGTGCAG”, the binding signal is 6510 fluorescence intensity (a.u.).

As for “ATGTGATTGACCTGAGAAAATGAAGTCAACTCAAAGTTCTCGGAGTCACCTAGTGCAG”, the binding signal was 44100 fluorescence intensity (a.u.).

Consider “AACAGACTAATCAAATAATGACCAGCTCAATCGACTCTAGCGGAGTCACCTAGTGCAG”, for which the binding signal is 7840 fluorescence intensity (a.u.).

Consider “AGGGTAAATTGGAACCATGCCATTATAATTTTGCAAAGTTCGGAGTCACCTAGTGCAG”, for which the binding signal was 11800 fluorescence intensity (a.u.).

Consider “ATTACAAATCTAGAAAATCAGAAATTGCGTCGACATCACACGGAGTCACCTAGTGCAG”, for which the binding signal was 3300 fluorescence intensity (a.u.).

As for “ATGTTTGTTCTTACATGATTATCTTTAAGTGATCTCGGTCCGGAGTCACCTAGTGCAG”, the binding signal is 4010 fluorescence intensity (a.u.).

Consider “GCATCCCATTAATTGGATTAATCTCTAGCCACACGTAGTACGGAGTCACCTAGTGCAG”, for which the binding signal was 33700 fluorescence intensity (a.u.).

On to “CCTTGATGATTGAACCAGTCAGCCCCAACATCTCTATAAACGGAGTCACCTAGTGCAG”, for which the binding signal is 25800 fluorescence intensity (a.u.).

As for “TTTTCATATCATTTGATTCATTGTTAAATATACTTTCATGCGGAGTCACCTAGTGCAG”, the binding signal was 51700 fluorescence intensity (a.u.).

With “GGGAGCGGCGGAGGAGGAGGGCGCGGCGGCGGTGGGGTGGCGGAGTCACCTAGTGCAG”, the binding signal was 5290 fluorescence intensity (a.u.).

Regarding “TGGATTAATTAGGCTCAAAAGATTCGTCTCGCGGTTTACACGGAGTCACCTAGTGCAG”, the binding signal was 18300 fluorescence intensity (a.u.).

Regarding “GTTGTTAATTGTCTCGTGCATGTGATCCATGTATGCGCCACGGAGTCACCTAGTGCAG”, the binding signal is 25100 fluorescence intensity (a.u.).

For “CCTTCAATCAACACATACAATTTGGCAAAACTTACAAAATCGGAGTCACCTAGTGCAG”, the binding signal is 22700 fluorescence intensity (a.u.).

Consider “GGTTATAATTTAAATTCCGCTACTGACATTACTAATTCACCGGAGTCACCTAGTGCAG”, for which the binding signal was 15000 fluorescence intensity (a.u.).

“AAAATATTAGAATGACTTACATTATGAAAGCAAGTTTCTTCGGAGTCACCTAGTGCAG”: the binding signal was 7040 fluorescence intensity (a.u.).

On to “AATGTGTTAACTAATCAACTCGTCTCCCATCTCCTGCAAGCGGAGTCACCTAGTGCAG”, for which the binding signal was 5480 fluorescence intensity (a.u.).

Regarding “CTCAAATTTATAGCTGAGACTGGTGAATATGAGATGGTTCCGGAGTCACCTAGTGCAG”, the binding signal was 5090 fluorescence intensity (a.u.).

With “CCCAACACAAATTAAAGATTATGACAACTGACAAGGTTCCCGGAGTCACCTAGTGCAG”, the binding signal is 11200 fluorescence intensity (a.u.).

As for “ATGGACTATTAAATTGACTATAAATGATTTGGAGCTAGTACGGAGTCACCTAGTGCAG”, the binding signal was 22200 fluorescence intensity (a.u.).

For the sequence “TGTGATTTAGTTTGACCAGGGAGGCCATGATCTGCATGCACGGAGTCACCTAGTGCAG”, the binding signal is 15000 fluorescence intensity (a.u.).

On to “AACCTATTTGCTCCATGATTTGATAATATGGTGGTACATTCGGAGTCACCTAGTGCAG”, for which the binding signal is 6770 fluorescence intensity (a.u.).

For “ATTATATAATCATTATTTATTTTATCATCACATGTTTTATCGGAGTCACCTAGTGCAG”, the binding signal is 3790 fluorescence intensity (a.u.).

On to “ATTGGCTATTAAATTGACTATAAATGATTTTGAGCTGATACGGAGTCACCTAGTGCAG”, for which the binding signal is 20700 fluorescence intensity (a.u.).

Turning to “GGATAACAAATAAACTTATTCCATCCAAACAGCTACCGTGCGGAGTCACCTAGTGCAG”, the binding signal was 3350 fluorescence intensity (a.u.).

For the sequence “CTAATTTTGAAGTTTAATTAATCATACGCTAATAGCTCATCGGAGTCACCTAGTGCAG”, the binding signal is 20500 fluorescence intensity (a.u.).

As to “CCAATAATTGCGGTGGGGCCCACACCCAGCATACATAGCCCGGAGTCACCTAGTGCAG”, the binding signal is 18200 fluorescence intensity (a.u.).

With “ATCTACATGATTGTTTCAGATTATTGCTAATAATTCAGATCGGAGTCACCTAGTGCAG”, the binding signal is 31700 fluorescence intensity (a.u.).

For the sequence “CCGTTAAATTGAGTAGCTTAAATCATACAAGTATTAGTTGCGGAGTCACCTAGTGCAG”, the binding signal is 34800 fluorescence intensity (a.u.).

Turning to “ATCTAATCGTTAATTAGGCTAGCGATCCGGTCGCTTTTGGCGGAGTCACCTAGTGCAG”, the binding signal was 12900 fluorescence intensity (a.u.).

As to “AAGTGTGTTCCCTGATGATTAGTAGCTATTACTCTTCCAACGGAGTCACCTAGTGCAG”, the binding signal is 4790 fluorescence intensity (a.u.).

For “TTAAGTTGATGATATGTCTAGATTTATTGTACTAAAATGTCGGAGTCACCTAGTGCAG”, the binding signal was 3920 fluorescence intensity (a.u.).

Consider “CATCATTAAACTAATCATCCATACTGTTGAGGGTCCTAATCGGAGTCACCTAGTGCAG”, for which the binding signal is 4080 fluorescence intensity (a.u.).
